From PubChem BioAssay AID1768 (National Center for Advancing Translational Sciences (NCATS), 2009)
The campaign covered roughly 270,000 compounds. About 620 (0.23%) were called active. The shares of active, inactive and inconclusive entries below differ from those in the screen. Calls follow the shape of the dose curve; as a rule, active = well fitted inhibition curve with a large enough effect in the polarisation, with a control signal flat (not every such curve was filed as active); inconclusive = small, poorly fitted or top-dose-only effect, or effect the other way, or a change in a side signal; inactive = no such curve, though single readings can be large or run the other way; the % refers to the polarisation. Potencies of inconclusive entries are doubtful fits and often do not repeat. “Side channel” marks fits to a control or component signal instead of the main read-out.

These molecules were tested against Menin (Homo sapiens) (UniProt O00255) (assay: qHTS Assay for Inhibitors Targeting the Menin-MLL Interaction in MLL Related Leukemias: Competition With Texas Red Labeled MLL-derived Mutant Peptide). Details: fluorescence polarization; series mostly up to 61.6 µM.
UniProt O00255, sequence (O00255 whole entry, looked up): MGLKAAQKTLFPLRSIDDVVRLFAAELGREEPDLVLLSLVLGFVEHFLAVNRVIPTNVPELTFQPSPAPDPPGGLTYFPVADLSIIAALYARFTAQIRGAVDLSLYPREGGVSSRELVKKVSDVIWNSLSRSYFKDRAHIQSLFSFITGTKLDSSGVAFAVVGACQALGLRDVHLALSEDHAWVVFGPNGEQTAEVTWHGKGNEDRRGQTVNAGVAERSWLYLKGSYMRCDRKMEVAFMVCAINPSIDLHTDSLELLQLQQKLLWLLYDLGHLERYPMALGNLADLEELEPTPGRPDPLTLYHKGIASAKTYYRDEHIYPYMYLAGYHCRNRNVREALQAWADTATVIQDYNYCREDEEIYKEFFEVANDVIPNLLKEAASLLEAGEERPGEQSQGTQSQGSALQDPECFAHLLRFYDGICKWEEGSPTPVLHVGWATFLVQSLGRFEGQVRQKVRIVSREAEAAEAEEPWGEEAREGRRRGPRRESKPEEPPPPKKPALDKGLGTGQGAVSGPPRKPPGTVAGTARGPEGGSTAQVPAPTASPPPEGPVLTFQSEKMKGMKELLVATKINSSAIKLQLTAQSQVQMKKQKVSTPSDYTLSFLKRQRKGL
Potency is read from the fitted curve at half-maximal effect; tags tell the direction and shape of the fitted curve or compound fluorescence and quenching.

Potency, inconclusive:
COc1ccccc1N1CCN(c2nc(C)nc3c2oc2ccccc23)CC1 22.4 µM [fluorescent, side channel, partial curve]
O=C(COC(=O)c1ccc2c(c1)OCO2)Nc1nc(-c2ccccc2)cs1 3.16 µM [inhibitor, partial curve]
CCC1=C/C(=C\c2ccc3c(c2)OCO3)C(=O)S1 11.2 µM [quencher, side channel, partial curve]
O=[N+]([O-])c1ccc(-c2ccc(/C=N/c3c(-c4ccco4)nc4ccccn34)o2)c(Cl)c1 10 µM [inhibitor, single point]
Cc1cc(CN2CCOCC2)c(O)c(C2(C)CCCCC2)c1 35.5 µM [fluorescent, side channel, single point]
COc1ccc(C(=O)NCCn2ccc3ccccc32)cc1 28.2 µM [inhibitor, partial curve]
Cc1cc(O)ccc1-c1cnc2ccccc2n1 28.2 µM [quencher, side channel, single point]
O=C(O)c1cc(N/N=C/c2ccc(OCc3ccccc3)cc2)ccc1Cl 14.1 µM [quencher, side channel, partial curve]
CCOC(=O)N1CCN(S(=O)(=O)c2ccc(C(=O)N(CCCN(C)C)c3nc4ccc(Cl)cc4s3)cc2)CC1 7.94 µM [fluorescent, side channel, full curve, poor fit]
CCOC(=O)CNC(=O)c1ccccc1 2 µM [inhibitor, full curve, poor fit]
COc1ccccc1/C=N/NC(=O)c1ccc(NC(=O)c2cccc([N+](=O)[O-])c2)cc1 31.6 µM [quencher, side channel, single point]
O=Cc1cc2ccccc2nc1SCc1ccc(Cl)c(Cl)c1 2.82 µM [inhibitor, full curve, poor fit]
Cc1ccc(-n2ccc(=O)c(C(=O)Nc3ccc(S(=O)(=O)Nc4nccs4)cc3)n2)cc1 25.1 µM [quencher, side channel, partial curve]
COc1ccc2nc(Nc3sc4c(c3C(N)=O)CCCC4)sc2c1 20 µM [quencher, side channel, partial curve]
Cc1ccc(OCCn2cc(/C=N/NC(=O)c3ccncc3)c3ccccc32)cc1 15.8 µM [quencher, side channel, partial curve]
